Whole data set: some 33,000 sequences, median “E-score (-0.5 to 0.5)” near -0.021, cut for the highest 2% near 0.32. The list shows a part of the results.
These sequences were tested against T1, Zap1 (UniProt P47043) (assay: PBM E-score (8-mer binding enrichment) (E-score (-0.5 to 0.5)); higher = stronger / more preferred TF binding; most listed sequences are background and not binding sites). Details: protein concentration: 200 nM; construct: GST-full length.
T1 sequence: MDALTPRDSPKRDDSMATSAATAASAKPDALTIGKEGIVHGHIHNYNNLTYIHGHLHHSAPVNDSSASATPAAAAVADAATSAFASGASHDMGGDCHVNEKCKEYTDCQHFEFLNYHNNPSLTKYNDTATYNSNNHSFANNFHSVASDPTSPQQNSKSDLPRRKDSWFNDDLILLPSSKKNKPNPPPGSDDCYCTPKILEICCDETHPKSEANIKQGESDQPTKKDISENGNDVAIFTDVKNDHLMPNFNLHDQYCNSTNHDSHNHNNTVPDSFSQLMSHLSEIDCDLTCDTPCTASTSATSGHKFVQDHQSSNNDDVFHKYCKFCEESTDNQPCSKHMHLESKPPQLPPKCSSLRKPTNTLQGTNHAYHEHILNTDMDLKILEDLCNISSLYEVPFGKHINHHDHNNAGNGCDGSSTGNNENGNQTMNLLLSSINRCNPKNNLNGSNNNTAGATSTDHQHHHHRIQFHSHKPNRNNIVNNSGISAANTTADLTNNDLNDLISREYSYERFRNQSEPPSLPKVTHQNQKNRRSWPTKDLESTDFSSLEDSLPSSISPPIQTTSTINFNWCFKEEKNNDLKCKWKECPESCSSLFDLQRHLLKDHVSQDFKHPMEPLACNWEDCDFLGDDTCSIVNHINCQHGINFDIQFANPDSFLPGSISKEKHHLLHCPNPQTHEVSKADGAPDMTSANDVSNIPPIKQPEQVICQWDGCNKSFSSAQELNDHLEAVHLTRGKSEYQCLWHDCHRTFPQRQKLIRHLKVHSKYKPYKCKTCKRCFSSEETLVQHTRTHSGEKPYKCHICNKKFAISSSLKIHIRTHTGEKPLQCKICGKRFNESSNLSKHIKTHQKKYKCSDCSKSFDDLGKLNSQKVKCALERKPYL
Summary of the method: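 Bound GST-tagged yeast transcription factors, applied at about 100-200 nM to double-stranded universal all-10-mer Agilent arrays, were detected with fluorescent anti-GST. Scans were normalised with masliner. A modified Wilcoxon-Mann-Whitney statistic, the E-score, was assigned to each ungapped eight-base word pooled with its reverse complement by the Universal PBM Analysis Suite.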

Sequence	PBM E-score
TAGTCTCA	0.0559
AAGGGTGC	0.134
CAAAAAGA	0.00752
CGTTAGGC	-0.00344
CTACGACA	-0.0729
CCCGCCAG	-0.098
ACCCAGAG	0.279
CTCGGAGC	-0.0875
AACCTACT	0.135
CAGTCCCG	-0.172
CGTGTCAA	-0.0811
GCGATTAA	0.078
AACTATAT	0.162
AGTAGCTG	-0.159
CGTGCTAG	-0.268
GAGGCGTA	-0.162
ATCATCTG	-0.0293
AAGATTTC	0.0883
ACCATTTG	0.221
TCAGACCA	0.0492
GAACTAAA	0.164
AGCTTGAA	-0.179

Sequence	PBM E-score
CCTTATGA	0.181
CCTTTCAG	0.0739
CAAGTTAC	0.0439
GGAGCGCA	-0.242
GTTTGGAA	0.116
CGCTTCCA	-0.202
ATTTTACC	0.216
CGCGACAC	-0.0113
GGACAGAC	-0.0786
ATAGGCGG	-0.108
CGAGGAAG	-0.213
GAAGGATC	-0.167
ACCACGTA	-0.0822
AGTGCGTA	-0.174
ACTTCTCA	-0.0742
GACAGTGC	-0.167
CGTGAGCA	-0.131
CAATACCG	0.0236
CCTTAACG	0.174
AAATGCGG	0.134
CACCACCA	0.0335
ACAATGTG	-0.0256

Sequence	PBM E-score
GTTTGAAA	0.206
CGCTTACC	-0.132
GCCACATA	-0.00652
ACATGCGT	-0.0743
CGACGGAC	-0.124
GATGTGTA	-0.181
CCATTGGA	-0.0581
CTTTGCGC	-0.0424
CATTTCGC	-0.0829
ATCAAGCG	0.0309
AAAATGAA	0.0187
GCGCATTA	0.0752
AGATCTTA	-0.0333
CTTGCGCA	-0.00034
GTTACTCA	0.199
CCGACGGC	-0.0795
CGTGATGC	-0.0217
CGGGATGC	-0.275
AGACGTGA	0.00521
CGTCATGC	-0.194
ATCAATGG	-0.0197
AACTGAGC	-0.219

Sequence	PBM E-score
CCGATAGG	0.189
GTTTGTGA	0.111
AGACATGG	-0.153
ACTGCCAA	-0.0488
AGTTGATC	-0.0428
AGGAGAAT	0.0756
ACGAACGA	-0.0891
AGAATATC	-0.132
AAGGTCTC	0.162
GCAACGAA	0.0701
ATCTAAAC	-0.119
AACCCCTG	0.347
TTCGCAAA	0.196
ATGACGTC	-0.139
AATTGATG	0.26
AACAGGTT	0.147
AGTTCATG	0.0692
CAATCAGC	-0.0527
CATGCGCC	-0.176
AATTGCAA	0.0788

From the supplement of paper PMC3334620
